{"source": "paper PMC7819943", "about": "“Rice protein-binding microarrays: a tool to detect cis-acting elements near promoter regions in rice”", "note": "The other results are listed elsewhere or left out.", "data": [{"target": "T1, OsWOX13 (Oryza sativa, UniProt Q5QMM3 1-267)", "T1 sequence": "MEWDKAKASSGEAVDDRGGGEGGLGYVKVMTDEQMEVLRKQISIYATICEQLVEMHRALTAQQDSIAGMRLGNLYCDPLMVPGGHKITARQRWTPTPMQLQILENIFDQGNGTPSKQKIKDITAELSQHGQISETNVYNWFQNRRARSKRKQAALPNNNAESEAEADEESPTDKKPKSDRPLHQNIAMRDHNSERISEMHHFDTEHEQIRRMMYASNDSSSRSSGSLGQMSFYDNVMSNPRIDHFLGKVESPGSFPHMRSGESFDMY", "assay": "protein-binding microarray (RPBM); PBS, 2% BSA, 51.3 ng/ul salmon testes DNA, 50 uM zinc acetate, 200 nM TF, 25 C, 1 h; high values mean tight binding", "conditions": "protein: recombinant; tags: N-terminal polyhistidine and DsRed monomer fusion (pET32a); label: CyDye5-dUTP incorporated in the synthesized complementary strand; 3' TTTTT single-stranded linker to array surface; dsDNA, one strand shown", "how_it_was_run": "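A custom Agilent array was converted to double-stranded form by primer extension with Cy5-dUTP and blocked with 2% BSA. Protein at 200 nM in PBS with 2% BSA, salmon testes DNA and 50 µM zinc acetate was applied for 1 h at 25 °C, followed by washing. The proteins were polyhistidine–DsRed N-terminal fusions of transcription factors, expressed in E. coli BL21-CodonPlus and Ni–NTA-purified. The binding signal is per-feature fluorescence intensity (arbitrary units) from an Axon 4000B scanner.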", "values": [{"sequence": "CTTCACTTCTATCACACAGTTGACAGAATTCAGAGCCTTCCGGAGTCACCTAGTGCAG", "binding signal": "8270 fluorescence intensity (a.u.)"}, {"sequence": "CTTAAACAGATGGAGCAGAAGAAGAAAACGGATGCTAGAACGGAGTCACCTAGTGCAG", "binding signal": "5680 fluorescence intensity (a.u.)"}, {"sequence": "AAATCTGATTAACCTGCCTTTCACACCACACGTGAATTAGCGGAGTCACCTAGTGCAG", "binding signal": "9750 fluorescence intensity (a.u.)"}, {"sequence": "TCGGTCTTTCAACTCACATCAATTAGCTTAAGTTTCCATTCGGAGTCACCTAGTGCAG", "binding signal": "3210 fluorescence intensity (a.u.)"}, {"sequence": "CCAAACAAATTTAATCAAAAGCCAGCATGATGCAGTTAATCGGAGTCACCTAGTGCAG", "binding signal": "6400 fluorescence intensity (a.u.)"}, {"sequence": "GGAGTAGTGATTAGTGGGTGGTGATGGGCACCACTAGTCACGGAGTCACCTAGTGCAG", "binding signal": "11200 fluorescence intensity (a.u.)"}, {"sequence": "CAAATCATGACGCAATTAAGTTTAAAAGATTTGTCTCATACGGAGTCACCTAGTGCAG", "binding signal": "16700 fluorescence intensity (a.u.)"}, {"sequence": "TTTATGATTAGTATTATTATTATTATTATTATATGATAAACGGAGTCACCTAGTGCAG", "binding signal": "23400 fluorescence intensity (a.u.)"}, {"sequence": "GAGGCAGTAATTAACATCCATTGGAAGAGCATATAATGGGCGGAGTCACCTAGTGCAG", "binding signal": "6900 fluorescence intensity (a.u.)"}, {"sequence": "ACGTGATGAGCAGCCTGGTGGACTTCTATGGAAAATGCGGCGGAGTCACCTAGTGCAG", "binding signal": "7520 fluorescence intensity (a.u.)"}, {"sequence": "GTCTTGATGGATCGGTCAGGATCGTCTCGCTTAGATCCAACGGAGTCACCTAGTGCAG", "binding signal": "5260 fluorescence intensity (a.u.)"}, {"sequence": "ATAATTTCTCTATGGTTTCTAAGAGATAGATAGAATATATCGGAGTCACCTAGTGCAG", "binding signal": "8940 fluorescence intensity (a.u.)"}, {"sequence": "GAATTAGTTGATTTGGACATAGGAATATACTCCTATTTCTCGGAGTCACCTAGTGCAG", "binding signal": "4710 fluorescence intensity (a.u.)"}, {"sequence": "TTAATTAATTATAGAAACAGTCTCTCTGGAAATGGTTCAACGGAGTCACCTAGTGCAG", "binding signal": "41700 fluorescence intensity (a.u.)"}, {"sequence": "TCTTTAAATTATGATTATTGTGCGAACGATTTTGCTATATCGGAGTCACCTAGTGCAG", "binding signal": "20500 fluorescence intensity (a.u.)"}, {"sequence": "TCCCAATTACCTGCCCCTACCCAAGTATTGAAAAGGAGGGCGGAGTCACCTAGTGCAG", "binding signal": "4310 fluorescence intensity (a.u.)"}, {"sequence": "TACCTAATTTCATATATCTAATTGCTTTGTGATGCTCAATCGGAGTCACCTAGTGCAG", "binding signal": "15700 fluorescence intensity (a.u.)"}, {"sequence": "TTATCTAAATCTACCTAATTAGTCGTAAATATGAGCACACCGGAGTCACCTAGTGCAG", "binding signal": "8440 fluorescence intensity (a.u.)"}, {"sequence": "TTTGATGAGTGAGAGCCCTCAGGGCCGATTTATATATGGGCGGAGTCACCTAGTGCAG", "binding signal": "8560 fluorescence intensity (a.u.)"}, {"sequence": "CTATTTCTCAAATGATTGATGTGGATAATCCATGGCTTCACGGAGTCACCTAGTGCAG", "binding signal": "18100 fluorescence intensity (a.u.)"}, {"sequence": "ATATATATATATATATATATATATATATATACAGTTCACACGGAGTCACCTAGTGCAG", "binding signal": "25700 fluorescence intensity (a.u.)"}, {"sequence": "GTTTAGACTTATAATAAACTAATTAAAACGATAAGTAAGTCGGAGTCACCTAGTGCAG", "binding signal": "4810 fluorescence intensity (a.u.)"}, {"sequence": "AAATTAACAGCGTTAAATATTTAGGAGCGGAGGGAGTATTCGGAGTCACCTAGTGCAG", "binding signal": "4020 fluorescence intensity (a.u.)"}, {"sequence": "CTCATTGACATTTTCAGTTGGTAATCAGTACACTTGTTCCCGGAGTCACCTAGTGCAG", "binding signal": "6440 fluorescence intensity (a.u.)"}, {"sequence": "CCTTGATGACACGAATAGCTATGGCATATCCTTGGTATTCCGGAGTCACCTAGTGCAG", "binding signal": "4660 fluorescence intensity (a.u.)"}, {"sequence": "TTCAGTATGTGTGATTGGCTGAGCTTGGATTTAGTACTAGCGGAGTCACCTAGTGCAG", "binding signal": "19800 fluorescence intensity (a.u.)"}, {"sequence": "TAAGATTGATTGATTCGAAACGATCCTCCAAAATACTGTACGGAGTCACCTAGTGCAG", "binding signal": "19500 fluorescence intensity (a.u.)"}, {"sequence": "GATTATGATTTGGAGAAAATTGCATCCATAAAACATTAATCGGAGTCACCTAGTGCAG", "binding signal": "8000 fluorescence intensity (a.u.)"}, {"sequence": "CCGCGTACGCGATTGACGACTATACATTTTACGGGCTCACCGGAGTCACCTAGTGCAG", "binding signal": "5470 fluorescence intensity (a.u.)"}, {"sequence": "ACTAGTTAAACTAATTTAAATTTTATGTCTAATAAAGTAGCGGAGTCACCTAGTGCAG", "binding signal": "20500 fluorescence intensity (a.u.)"}, {"sequence": "ATATAAATTGACTATTAAATATATTGACTATATGTAAATTCGGAGTCACCTAGTGCAG", "binding signal": "25600 fluorescence intensity (a.u.)"}, {"sequence": "TCCGCGTGATTTCCCTCTCCGTGGCGGTGTTTTGGTCGGGCGGAGTCACCTAGTGCAG", "binding signal": "7120 fluorescence intensity (a.u.)"}, {"sequence": "TTAACAATTGAAAGATCATCTCATTGGTTAATTTATTTGGCGGAGTCACCTAGTGCAG", "binding signal": "6220 fluorescence intensity (a.u.)"}, {"sequence": "ATAATAATTAAGTAAACATTATTAGAAAATAGCACAACCTCGGAGTCACCTAGTGCAG", "binding signal": "8720 fluorescence intensity (a.u.)"}, {"sequence": "ATTAACGATACTTTTACTGATTACTGAAGCGGTTAACGACCGGAGTCACCTAGTGCAG", "binding signal": "3930 fluorescence intensity (a.u.)"}, {"sequence": "TGGTAATACGTAATCTAGATTTGAGATTATGTAGAACATTCGGAGTCACCTAGTGCAG", "binding signal": "5170 fluorescence intensity (a.u.)"}, {"sequence": "ATAAATTATCCCACCAAAATTCGACTGAATTCGATAAGTTCGGAGTCACCTAGTGCAG", "binding signal": "4770 fluorescence intensity (a.u.)"}, {"sequence": "TCACCTAACTCTAGTATAATTATCAATTTATCAGGCATACCGGAGTCACCTAGTGCAG", "binding signal": "11200 fluorescence intensity (a.u.)"}, {"sequence": "GAATTAATTGAGTTTCAGTTATAGATATATAGCTGGCTGACGGAGTCACCTAGTGCAG", "binding signal": "35300 fluorescence intensity (a.u.)"}, {"sequence": "ATATATCAAATTTTGCAAAATTATAATGGCATGGTTGTAACGGAGTCACCTAGTGCAG", "binding signal": "5580 fluorescence intensity (a.u.)"}, {"sequence": "TTGAAATTTGAGAAAATTTGCTCAAATTCACCAAGGTCTACGGAGTCACCTAGTGCAG", "binding signal": "7750 fluorescence intensity (a.u.)"}, {"sequence": "TGCAATTGATTTCACAAACCATGGGAGATGGTGACGTGCACGGAGTCACCTAGTGCAG", "binding signal": "18900 fluorescence intensity (a.u.)"}]}]}
